Source: paper PMC4336329 (PLoS ONE, 2015)
The whole screen tested about 310,000 compounds, of which about 2,200 (0.71%) showed an effect of 50% or more. The effect is printed as a negative number. Some of the results follow.

These compounds were tested against human ether-à-go-go-related gene (hERG) potassium channel (human, UniProt Q12809) (assay: primary screen, population patch clamp on CHO cells stably expressing hERG).
Sequence of human ether-à-go-go-related gene (hERG) potassium channel (Q12809 whole entry, looked up): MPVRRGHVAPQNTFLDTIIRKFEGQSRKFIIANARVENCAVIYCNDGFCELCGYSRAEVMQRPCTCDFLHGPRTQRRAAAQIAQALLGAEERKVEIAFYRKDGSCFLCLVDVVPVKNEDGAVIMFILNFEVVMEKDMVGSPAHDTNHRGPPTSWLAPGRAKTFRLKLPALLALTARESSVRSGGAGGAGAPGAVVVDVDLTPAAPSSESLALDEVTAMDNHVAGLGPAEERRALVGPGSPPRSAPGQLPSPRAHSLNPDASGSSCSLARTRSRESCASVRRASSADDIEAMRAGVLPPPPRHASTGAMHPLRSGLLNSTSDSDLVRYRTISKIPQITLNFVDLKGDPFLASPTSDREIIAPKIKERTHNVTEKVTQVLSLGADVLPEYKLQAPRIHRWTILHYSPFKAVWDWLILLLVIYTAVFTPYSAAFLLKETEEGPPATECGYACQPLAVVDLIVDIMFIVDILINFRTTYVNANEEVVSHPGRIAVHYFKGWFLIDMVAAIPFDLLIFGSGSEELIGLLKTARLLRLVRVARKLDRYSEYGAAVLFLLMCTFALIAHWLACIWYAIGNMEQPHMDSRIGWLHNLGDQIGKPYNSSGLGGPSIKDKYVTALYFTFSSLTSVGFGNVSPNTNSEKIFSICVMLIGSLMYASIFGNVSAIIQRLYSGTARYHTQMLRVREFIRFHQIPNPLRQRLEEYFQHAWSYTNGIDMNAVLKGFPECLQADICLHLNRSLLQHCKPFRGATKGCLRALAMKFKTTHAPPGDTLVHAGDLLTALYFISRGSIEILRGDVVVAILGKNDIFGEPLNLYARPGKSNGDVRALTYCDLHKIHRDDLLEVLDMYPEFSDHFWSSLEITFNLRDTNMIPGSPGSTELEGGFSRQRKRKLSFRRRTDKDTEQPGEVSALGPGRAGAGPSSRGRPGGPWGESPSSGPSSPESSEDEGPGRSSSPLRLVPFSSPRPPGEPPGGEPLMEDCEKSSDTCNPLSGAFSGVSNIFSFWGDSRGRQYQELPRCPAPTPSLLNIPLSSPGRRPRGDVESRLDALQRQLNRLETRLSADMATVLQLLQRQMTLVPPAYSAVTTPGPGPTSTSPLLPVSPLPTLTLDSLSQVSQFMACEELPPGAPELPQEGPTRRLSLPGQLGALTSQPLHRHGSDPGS

| SMILES | hERG current change (%, negative = inhibition) at 1uM [%] |
| --- | --- |
| CC(=O)Nc1ccc(NC(=O)COC(=O)[C@@H](NC(=O)c2ccc(F)cc2)C(C)C)cc1 | 13.6 |
| COc1ccc(S(=O)(=O)NC(C)C(=O)Nc2cccc([N+](=O)[O-])c2)cc1 (stereo not shown) | 13.4 |
| CCOC(=O)CC(=O)CSc1nc(-c2ccc3c(c2)OCO3)cc(C(F)(F)F)c1C#N | 6.83 |
| CN(C)S(=O)(=O)c1ccc(Cl)c(C(=O)OCC(=O)NNC(=O)c2cccs2)c1 | 5.6 |
| CC(C)CCNC(=O)C1CCN(C(=O)N(C)C)CC1 | 13.8 |
| CCOc1ccc2[nH]c(=O)c(C(c3nnnn3CCOC)N3CCOCC3)cc2c1 (stereo not shown) | 6.89 |
| CC(C)N1CCc2c(sc(NC(=O)c3ccc(C(=O)c4ccccc4)cc3)c2C(N)=O)C1.Cl | 4.9 |
| O=C(Nc1c(S(=O)(=O)c2ccc(Cl)cc2)csc1Br)c1ccccc1Cl | 7.8 |
| Cc1ccc(/C=N/Nc2ccc(Cl)nn2)cc1 | 10.9 |
| CCOc1ccc(OCCC(=O)OCC(=O)Nc2cc(C)nn2-c2ccccc2)cc1 | -3.55 |
| O=[N+]([O-])c1cccc(-c2ccc(CN3CCCCC3)o2)c1 | -1.72 |
| CCn1nccc1C(=O)Nc1ccc(Cl)c(Cl)c1 | -13.4 |
| Cc1cccc(N2CCN(c3nc4ccccc4n4cnnc34)CC2)c1C | 18.6 |
| Cc1cccc(NC(=O)C2CCCN(S(=O)(=O)c3ccc(-n4cnnn4)cc3)C2)c1 (stereo not shown) | -21.9 |
| CCS(=O)(=O)NCC(c1ccco1)N1CCN(c2ccc(F)cc2)CC1 (stereo not shown) | -1.32 |
| Cl.OC(COc1ccc(Br)cc1)CN1CCCC1 (stereo not shown) | 5.23 |
| CCO[C@@H]1OC(C(=O)O)=C[C@H](c2cn(C(C)=O)c3ccccc23)[C@H]1CCCO | 15.9 |
| CC(C)(CO)C(O)C(=O)NCCC#N (stereo not shown) | 4.85 |
| O=C(Nc1ccc(S(=O)(=O)Nc2ncccn2)cc1)c1ccccc1NS(=O)(=O)c1ccc(Cl)cc1 | 12.9 |
| O=C(CSc1nc2ccccc2s1)NCC1CCCO1 (stereo not shown) | 9.94 |
| COc1ccc(OCCSc2nc3ccccc3n2CC(=O)O)cc1 | 12.3 |
| CSc1nnc(C)c(=O)n1COC(=O)c1ccc(S(=O)(=O)N(C)C)cc1 | -0.398 |

| SMILES | hERG current change (%, negative = inhibition) at 1uM [%] |
| --- | --- |
| Cc1ccc(C(=O)NCCn2ccc3ccccc32)cc1[N+](=O)[O-] | -2.16 |
| O=c1nc2ccccc2c(NS(=O)(=O)c2ccc(Cl)cc2)n1-c1ccccc1 | -4.68 |
| CCCOc1ccc(/C=C2\SC(N)=NC2=O)cc1OC | 10.1 |
| O=C(Nc1cc(Cl)cc(Cl)c1)c1ccno1 | 10.7 |
| CCC1CN(C(=O)N2CCC(C(=O)NCc3cc(OC)c(OC)c(OC)c3)CC2)c2ccccc2O1 (stereo not shown) | 17.9 |
| CCOc1ccc(S(=O)(=O)N2CCCC(C(=O)NCc3cccnc3)C2)cc1 (stereo not shown) | 6.61 |
| Cc1ccc(COc2ccsc2-c2n[nH]c(=S)n2C)cc1 | 8.51 |
| NC(=O)CC[C@@H]1NC(=O)[C@@H]2CCCN2C(=O)c2cc([N+](=O)[O-])cc(I)c2NCCC[C@@H](C(N)=O)NC1=O | 7.17 |
| Cc1cccc(OCC(=O)NCCCNC(=O)c2cccnc2)c1 | 24.7 |
| O=C(NCCCCNC(=O)c1c(Cl)cccc1Cl)c1c(Cl)cccc1Cl | 7.84 |
| NC(=O)C(c1ccc(Cl)cc1)c1ncc(C(F)(F)F)cc1Cl (stereo not shown) | 5.34 |
| CCc1nc2ccc(C(=O)N(CC)CC(=O)Nc3c(F)cccc3F)cc2nc1CC | 11.4 |
| O=C(Nc1cccc(Cl)c1Cl)C1CCN(C(=O)c2cccs2)CC1 | 3.9 |
| O=C(NCC(O)c1ccc([N+](=O)[O-])cc1)C(c1ccccc1)c1ccccc1 (stereo not shown) | 12 |
| N#CCC(=O)N/N=C/c1ccc(OS(=O)(=O)c2ccccc2)cc1 | 17.9 |
| C/C(=N\NC(=O)c1c(C)nc2ccccn12)c1cccc([N+](=O)[O-])c1 | 6.38 |
| COCCNC(=O)C1CCC(CNS(=O)(=O)c2cccc3nsnc23)CC1 (stereo not shown) | 12.6 |
| O=C1/C(=C/c2ccc([N+](=O)[O-])cc2)N2CCC1CC2 | 5.22 |
| CCNc1ccc([N+](=O)[O-])cc1 | 8.09 |
| NC(=S)N/N=C/c1ccc(-n2nncc2-c2ccc(Cl)cc2)cc1 | -7.18 |
| COc1cc(C2C(C#N)=C(N)Oc3c2ccc2ccccc32)ccc1OCC(=O)Nc1cccc(C)c1 (stereo not shown) | 14.4 |
